According to PMC4242493:
The other results are listed elsewhere or left out. The list includes weakly bound sequences.

These sequences were tested against MaxL homodimer (UniProt P61244) (assay: universal protein-binding microarray (PBM)). Conditions: PBS-based mixture, 10 nM His-tagged protein dimer, 2% milk, 200 ng/uL BSA, 50 ng/uL salmon testes DNA, 0.02% TX-100; detection with Alexa 488 anti-His …; high values mean tight binding; most listed sequences are background and not binding sites; double strand, one strand shown.
UniProt P61244, sequence (P61244 whole entry): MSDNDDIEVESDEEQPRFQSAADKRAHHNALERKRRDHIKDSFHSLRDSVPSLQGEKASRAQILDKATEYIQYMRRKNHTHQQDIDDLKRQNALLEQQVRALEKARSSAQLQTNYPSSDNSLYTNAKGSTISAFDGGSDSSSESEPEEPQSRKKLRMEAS
In the case of ATACGGTA, the binding signal (normalized occupancy) is reported as 0.0762. Work on ACAGCACA yielded a binding signal (normalized occupancy) of 0.0828. AGGCGCGC gave a binding signal (normalized occupancy) of 0.0762. For ACGAACAA, the binding signal (normalized occupancy) was 0.075. ACGATTAG was tested, and the binding signal (normalized occupancy) was 0.0719. CCGCGCGG was tested, and the binding signal (normalized occupancy) was 0.0872. In the case of ACCCAAAA, the binding signal (normalized occupancy) is reported as 0.0704. For CCATGCTA, the binding signal (normalized occupancy) was 0.0945. AACGACAT was tested, and the binding signal (normalized occupancy) was 0.08. Sequence GAAACTTA has a binding signal (normalized occupancy) of 0.0725. CGCAAGTC showed a binding signal (normalized occupancy) of 0.0757. With TTACCTAA the binding signal (normalized occupancy) was 0.0795. AGCCAGCT gave a binding signal (normalized occupancy) of 0.0716. For AATTCTTG, the binding signal (normalized occupancy) was 0.0737. For CACTTTGG, the binding signal (normalized occupancy) was 0.0692. Sequence ACAATAGT has a binding signal (normalized occupancy) of 0.0756. Sequence AGACCGCT has a binding signal (normalized occupancy) of 0.0688. With GATTTACA the binding signal (normalized occupancy) was 0.0751. CACATTTC was tested, and the binding signal (normalized occupancy) was 0.0859. Work on TATCGGAA yielded a binding signal (normalized occupancy) of 0.0713. Work on GTTCAGCA yielded a binding signal (normalized occupancy) of 0.0774. CCCACCCA gave a binding signal (normalized occupancy) of 0.0925. CTCAAACC was tested, and the binding signal (normalized occupancy) was 0.0697. With AAGTGCCT the binding signal (normalized occupancy) was 0.0697. With CATACGCG the binding signal (normalized occupancy) was 0.0762. Work on AGTTGAAA yielded a binding signal (normalized occupancy) of 0.0727. For CATCCGAG, the binding signal (normalized occupancy) was 0.075. AGCCGCGC was tested, and the binding signal (normalized occupancy) was 0.0718. Work on AAGACAGC yielded a binding signal (normalized occupancy) of 0.0706. Sequence CATAGCCA has a binding signal (normalized occupancy) of 0.0772. In the case of GGTCATCA, the binding signal (normalized occupancy) is reported as 0.0816. With CGGTGTCC the binding signal (normalized occupancy) was 0.0657. Sequence CTTACCGA has a binding signal (normalized occupancy) of 0.0699. Work on TATAACGA yielded a binding signal (normalized occupancy) of 0.0877. Work on GAATCTCA yielded a binding signal (normalized occupancy) of 0.0722. For CCCCCGCG, the binding signal (normalized occupancy) was 0.0757. TAGATCGA gave a binding signal (normalized occupancy) of 0.0715. CGTCAGCC was tested, and the binding signal (normalized occupancy) was 0.0718. Sequence AGCATGAT has a binding signal (normalized occupancy) of 0.107. For AGGGCTGG, the binding signal (normalized occupancy) was 0.0696. CTCGATGC was tested, and the binding signal (normalized occupancy) was 0.0799. In the case of GATATTCC, the binding signal (normalized occupancy) is reported as 0.0765. Work on GCAGGTCA yielded a binding signal (normalized occupancy) of 0.0727. Work on GCTTGCCA yielded a binding signal (normalized occupancy) of 0.073. For CCGCGCGA, the binding signal (normalized occupancy) was 0.0729. With GTCGTCGA the binding signal (normalized occupancy) was 0.0712. TACTACTA showed a binding signal (normalized occupancy) of 0.0799. CCTGAAGC was tested, and the binding signal (normalized occupancy) was 0.0737. For GTTTGGCA, the binding signal (normalized occupancy) was 0.0715. ATCCAAAG was tested, and the binding signal (normalized occupancy) was 0.0737. CCACAAAC showed a binding signal (normalized occupancy) of 0.0719. In the case of GCATACCA, the binding signal (normalized occupancy) is reported as 0.0835. In the case of CTTCGCGA, the binding signal (normalized occupancy) is reported as 0.0686. With ATGGACAC the binding signal (normalized occupancy) was 0.0819. Work on GCACCGAA yielded a binding signal (normalized occupancy) of 0.0732. In the case of ACCAAGGG, the binding signal (normalized occupancy) is reported as 0.0735. For ATGACACG, the binding signal (normalized occupancy) was 0.0936. For CCACTGGA, the binding signal (normalized occupancy) was 0.0734. With TCCCTGAA the binding signal (normalized occupancy) was 0.0722. TAGAACGA showed a binding signal (normalized occupancy) of 0.0797. With AGCTTTTC the binding signal (normalized occupancy) was 0.0666. In the case of GACAACAA, the binding signal (normalized occupancy) is reported as 0.0712. For CGTTTACC, the binding signal (normalized occupancy) was 0.0763. GTTGTTGA gave a binding signal (normalized occupancy) of 0.0769. Work on AAAGTCGT yielded a binding signal (normalized occupancy) of 0.0747. Sequence CGGCTAAC has a binding signal (normalized occupancy) of 0.0721. AGGATAAT showed a binding signal (normalized occupancy) of 0.0834. GGCGAGTA gave a binding signal (normalized occupancy) of 0.075. CCACCGCA showed a binding signal (normalized occupancy) of 0.0786. For AAAGTTAG, the binding signal (normalized occupancy) was 0.0752. Work on GATGCAGC yielded a binding signal (normalized occupancy) of 0.0712. In the case of ACAAATCC, the binding signal (normalized occupancy) is reported as 0.0777. In the case of CGTGATAG, the binding signal (normalized occupancy) is reported as 0.0851. ATGTAAAA gave a binding signal (normalized occupancy) of 0.084. In the case of ACGTCCTA, the binding signal (normalized occupancy) is reported as 0.0771. CACACAAG gave a binding signal (normalized occupancy) of 0.0774. Sequence GAATCACC has a binding signal (normalized occupancy) of 0.0755. ACCAGCTA was tested, and the binding signal (normalized occupancy) was 0.072. In the case of TCTGTAAA, the binding signal (normalized occupancy) is reported as 0.085. Sequence ATATACGA has a binding signal (normalized occupancy) of 0.0856. Work on ACAGGATG yielded a binding signal (normalized occupancy) of 0.0777. CTGGGGGA was tested, and the binding signal (normalized occupancy) was 0.0753. GAATAATA was tested, and the binding signal (normalized occupancy) was 0.0768. Work on GGGATTGA yielded a binding signal (normalized occupancy) of 0.0725. Work on GATTAAGA yielded a binding signal (normalized occupancy) of 0.0776. Sequence CGGCGCTC has a binding signal (normalized occupancy) of 0.0662. Work on ATCTTGTG yielded a binding signal (normalized occupancy) of 0.0791. With AGGAGGCG the binding signal (normalized occupancy) was 0.074. Work on GACTGATC yielded a binding signal (normalized occupancy) of 0.0781. Sequence AAGTAGCG has a binding signal (normalized occupancy) of 0.0711. CACGTAAA showed a binding signal (normalized occupancy) of 0.0805. In the case of CTATCCCA, the binding signal (normalized occupancy) is reported as 0.0839. With TACCTAAA the binding signal (normalized occupancy) was 0.0813. AGGCGATG was tested, and the binding signal (normalized occupancy) was 0.0735. GAGCCCGC gave a binding signal (normalized occupancy) of 0.0735. Work on CATGGACA yielded a binding signal (normalized occupancy) of 0.0901. For GACACGCA, the binding signal (normalized occupancy) was 0.0852. For ATGGCTGC, the binding signal (normalized occupancy) was 0.0809. For GTGCGACA, the binding signal (normalized occupancy) was 0.0807. With CTCGTATA the binding signal (normalized occupancy) was 0.081. For GATTGAGC, the binding signal (normalized occupancy) was 0.0709. CTGACATA was tested, and the binding signal (normalized occupancy) was 0.0799. Work on CATTACTA yielded a binding signal (normalized occupancy) of 0.0827. TAGCTTAA was tested, and the binding signal (normalized occupancy) was 0.0705. Work on GCTGTACC yielded a binding signal (normalized occupancy) of 0.0765. Work on AGACACAC yielded a binding signal (normalized occupancy) of 0.0877. For TAACGTTA, the binding signal (normalized occupancy) was 0.0831. In the case of CATAGGCG, the binding signal (normalized occupancy) is reported as 0.0751. With TCCATGAA the binding signal (normalized occupancy) was 0.0812. In the case of AGTGGCAC, the binding signal (normalized occupancy) is reported as 0.0792. For ACAACCAG, the binding signal (normalized occupancy) was 0.0757. For ATGCAAGG, the binding signal (normalized occupancy) was 0.0775. For GCGCAAGC, the binding signal (normalized occupancy) was 0.067. Work on GAGTGCCC yielded a binding signal (normalized occupancy) of 0.073. CGTGAACC was tested, and the binding signal (normalized occupancy) was 0.0826. Work on ACGTACAC yielded a binding signal (normalized occupancy) of 0.0898. Work on CCGCTTCC yielded a binding signal (normalized occupancy) of 0.0681. AATTTTAA showed a binding signal (normalized occupancy) of 0.0705. CAAGTGGG gave a binding signal (normalized occupancy) of 0.0807. Work on CCCATTAG yielded a binding signal (normalized occupancy) of 0.0712. With GTCCAAAA the binding signal (normalized occupancy) was 0.0756. For ACCCGGTC, the binding signal (normalized occupancy) was 0.0691. For CGATAATA, the binding signal (normalized occupancy) was 0.0797. In the case of ACTGGATA, the binding signal (normalized occupancy) is reported as 0.0777. In the case of CATGCGGC, the binding signal (normalized occupancy) is reported as 0.121. In the case of GTCTCATA, the binding signal (normalized occupancy) is reported as 0.0789. Work on ATGCCCAC yielded a binding signal (normalized occupancy) of 0.0905. GACGCATC gave a binding signal (normalized occupancy) of 0.077. In the case of GCGAAGCA, the binding signal (normalized occupancy) is reported as 0.0713. ACTCGATC was tested, and the binding signal (normalized occupancy) was 0.0786. Sequence AGAACATA has a binding signal (normalized occupancy) of 0.0821. AACCGAGG showed a binding signal (normalized occupancy) of 0.0687. AACCAAAT showed a binding signal (normalized occupancy) of 0.0734. Sequence CACGTAGG has a binding signal (normalized occupancy) of 0.0797. Sequence ATCGCAAT has a binding signal (normalized occupancy) of 0.0728. For AATGTAGA, the binding signal (normalized occupancy) was 0.0767. AGCACAGA gave a binding signal (normalized occupancy) of 0.0742. Work on GTGCGAAA yielded a binding signal (normalized occupancy) of 0.0824. TAAAATGA showed a binding signal (normalized occupancy) of 0.0795. Work on ACCGCCCT yielded a binding signal (normalized occupancy) of 0.0752. AGCCTGAT gave a binding signal (normalized occupancy) of 0.0779. ATAGCTAT showed a binding signal (normalized occupancy) of 0.0702. CAAGGAGG gave a binding signal (normalized occupancy) of 0.0717. CACTCTCG gave a binding signal (normalized occupancy) of 0.0812. With CGATCAAA the binding signal (normalized occupancy) was 0.0744. Sequence AGGGAGGG has a binding signal (normalized occupancy) of 0.0739. ATATGCTC showed a binding signal (normalized occupancy) of 0.0928. For CAAATACG, the binding signal (normalized occupancy) was 0.0758. ACAACCGG was tested, and the binding signal (normalized occupancy) was 0.0717. AAGCTCGC was tested, and the binding signal (normalized occupancy) was 0.067. In the case of GCAAACAC, the binding signal (normalized occupancy) is reported as 0.0816. GCTGCAGC gave a binding signal (normalized occupancy) of 0.072. With CTTGTTAC the binding signal (normalized occupancy) was 0.0797. For ACCCTTTA, the binding signal (normalized occupancy) was 0.0786. For ACCTGGGG, the binding signal (normalized occupancy) was 0.0778. For CCCGGACA, the binding signal (normalized occupancy) was 0.0712. In the case of AAGGTGTC, the binding signal (normalized occupancy) is reported as 0.0775. For ATCCGCTC, the binding signal (normalized occupancy) was 0.071. In the case of AATAGGGG, the binding signal (normalized occupancy) is reported as 0.0818. With CCGGGGGA the binding signal (normalized occupancy) was 0.0691. Sequence AGAACAGC has a binding signal (normalized occupancy) of 0.0777. With ATGATGGG the binding signal (normalized occupancy) was 0.0867. In the case of GTATTCCA, the binding signal (normalized occupancy) is reported as 0.0796. ATGACCAG gave a binding signal (normalized occupancy) of 0.0794. CCCGATAA gave a binding signal (normalized occupancy) of 0.0745. With AACCTCAA the binding signal (normalized occupancy) was 0.0765. ATAGGCTC showed a binding signal (normalized occupancy) of 0.078. In the case of GATGAGGA, the binding signal (normalized occupancy) is reported as 0.0774. For CGAATATA, the binding signal (normalized occupancy) was 0.0813. ACCGGACA showed a binding signal (normalized occupancy) of 0.0727. For ACAGAGTC, the binding signal (normalized occupancy) was 0.0714. GAAGCCCC showed a binding signal (normalized occupancy) of 0.0705.
